{
  "source": "the supplement of paper PMC4166925",
  "note": "± gives the standard deviation of the averaged measurements. Whole data set: some 33,000 sequences, median “E-score (dimensionless, -0.5 to 0.5)” near -0.049, cut for the highest 2% near 0.37. This is one part of the list.",
  "data": [
    {"tested_on": "T1, PmTbr T-box DNA-binding domain (GST fusion)", "T1 sequence": "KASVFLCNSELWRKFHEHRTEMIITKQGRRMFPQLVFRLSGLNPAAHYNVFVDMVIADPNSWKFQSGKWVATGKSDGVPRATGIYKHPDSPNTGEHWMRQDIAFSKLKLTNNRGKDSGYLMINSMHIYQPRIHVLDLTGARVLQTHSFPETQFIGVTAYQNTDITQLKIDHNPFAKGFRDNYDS", "experiment": "PBM E-score of 8-mer (E-score (dimensionless, -0.5 to 0.5)); Tbr is Tbrain of the sea star Patiria miniata (Pm) or the sea urchin Strongylocentrotus purpuratus (Sp); higher = stronger binding preference; most listed sequences are background and not binding sites", "details": "the construct has about 5 more residues each side", "how_it_was_run": "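Using the Universal PBM Analysis Suite, every ungapped 8-mer received an enrichment E-score averaged over duplicate arrays. Probe intensities came from double-stranded Universal Agilent oligonucleotide arrays incubated with 200 nM GST-fused Tbr T-box DNA-binding domain in PBS (pH 7.5). That protein was expressed in BL21 E. coli at 20 °C and purified by glutathione affinity chromatography.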", "values": [
      {"sequence": "AAAGTTAT", "PBM E-score of 8-mer": "0.0134 ± 0.041"},
      {"sequence": "AGTAACTC", "PBM E-score of 8-mer": "-0.0139 ± 0.0087"},
      {"sequence": "GTCCCACA", "PBM E-score of 8-mer": "0.184 ± 0.035"},
      {"sequence": "AACTTGAG", "PBM E-score of 8-mer": "-0.0256 ± 0.072"},
      {"sequence": "ATGTGCTA", "PBM E-score of 8-mer": "0.396 ± 0.0083"},
      {"sequence": "CGACCATC", "PBM E-score of 8-mer": "0.0528 ± 0.0063"},
      {"sequence": "CATCCACA", "PBM E-score of 8-mer": "0.207 ± 0.033"},
      {"sequence": "ACGCTAAG", "PBM E-score of 8-mer": "0.142 ± 0.032"},
      {"sequence": "GGACAGGA", "PBM E-score of 8-mer": "-0.175 ± 0.027"},
      {"sequence": "GTAGTACA", "PBM E-score of 8-mer": "-0.179 ± 0.0093"},
      {"sequence": "ATCACGAT", "PBM E-score of 8-mer": "-0.00823 ± 0.00026"},
      {"sequence": "ATCGAAGG", "PBM E-score of 8-mer": "-0.102 ± 0.029"},
      {"sequence": "CCCACCGA", "PBM E-score of 8-mer": "0.0185 ± 0.054"},
      {"sequence": "GGCAGATA", "PBM E-score of 8-mer": "-0.118 ± 0.038"},
      {"sequence": "GCCGTCGC", "PBM E-score of 8-mer": "0.129 ± 0.043"},
      {"sequence": "CTATCTGA", "PBM E-score of 8-mer": "0.183 ± 0.026"},
      {"sequence": "CGATTTCC", "PBM E-score of 8-mer": "0.083 ± 0.072"},
      {"sequence": "CAGGTCAC", "PBM E-score of 8-mer": "0.165 ± 0.025"},
      {"sequence": "ACGCTTTA", "PBM E-score of 8-mer": "0.0687 ± 0.07"},
      {"sequence": "TAATCTGA", "PBM E-score of 8-mer": "-0.115 ± 0.081"},
      {"sequence": "GGTTAAGA", "PBM E-score of 8-mer": "-0.259 ± 0.074"},
      {"sequence": "ACGCAGAG", "PBM E-score of 8-mer": "0.0178 ± 0.036"},
      {"sequence": "CAGGCGAC", "PBM E-score of 8-mer": "0.196 ± 0.0031"},
      {"sequence": "AGCAAAGG", "PBM E-score of 8-mer": "-0.1 ± 0.015"},
      {"sequence": "GGCGATTA", "PBM E-score of 8-mer": "-0.187 ± 0.037"},
      {"sequence": "AATGCTAA", "PBM E-score of 8-mer": "-0.109 ± 0.037"},
      {"sequence": "AGTGTGGG", "PBM E-score of 8-mer": "0.36 ± 0.0037"},
      {"sequence": "CTTTTATC", "PBM E-score of 8-mer": "-0.0159 ± 9.9e-05"},
      {"sequence": "GAAACTCC", "PBM E-score of 8-mer": "-0.109 ± 0.016"},
      {"sequence": "ATTTCGAA", "PBM E-score of 8-mer": "-0.113 ± 0.042"},
      {"sequence": "CTTGTCCC", "PBM E-score of 8-mer": "-0.152 ± 0.045"},
      {"sequence": "GGTGAAAC", "PBM E-score of 8-mer": "0.0805 ± 0.054"},
      {"sequence": "AGTAAGAC", "PBM E-score of 8-mer": "-0.11 ± 0.028"},
      {"sequence": "TCAGATCA", "PBM E-score of 8-mer": "-0.129 ± 0.038"},
      {"sequence": "GTACGAGA", "PBM E-score of 8-mer": "-0.179 ± 0.055"},
      {"sequence": "ACATGACC", "PBM E-score of 8-mer": "-0.0888 ± 0.025"},
      {"sequence": "CCGAAGAA", "PBM E-score of 8-mer": "-0.235 ± 0.059"},
      {"sequence": "ACGAACCC", "PBM E-score of 8-mer": "-0.247 ± 0.028"},
      {"sequence": "TATACTCA", "PBM E-score of 8-mer": "-0.223 ± 0.07"},
      {"sequence": "GCTCCTCA", "PBM E-score of 8-mer": "-0.141 ± 0.015"},
      {"sequence": "ATAATTTC", "PBM E-score of 8-mer": "-0.135 ± 0.066"},
      {"sequence": "AGTCAGTA", "PBM E-score of 8-mer": "-0.00685 ± 0.034"},
      {"sequence": "GTGAGACA", "PBM E-score of 8-mer": "0.3321 ± 0.0027"},
      {"sequence": "ATCCTATC", "PBM E-score of 8-mer": "-0.164 ± 0.039"},
      {"sequence": "GCCAAACC", "PBM E-score of 8-mer": "0.0971 ± 0.069"},
      {"sequence": "ATAGGAAA", "PBM E-score of 8-mer": "-0.218 ± 0.0043"},
      {"sequence": "AGTCCTTC", "PBM E-score of 8-mer": "-0.1644 ± 0.00098"},
      {"sequence": "CCCATCCA", "PBM E-score of 8-mer": "-0.159 ± 0.0058"},
      {"sequence": "CGATGCCG", "PBM E-score of 8-mer": "-0.0591 ± 0.025"},
      {"sequence": "CGAGCGGC", "PBM E-score of 8-mer": "-0.146 ± 0.064"},
      {"sequence": "CAAAGCAA", "PBM E-score of 8-mer": "0.0287 ± 0.0068"},
      {"sequence": "ACTCAACC", "PBM E-score of 8-mer": "-0.195 ± 0.055"},
      {"sequence": "GCCGGCCA", "PBM E-score of 8-mer": "0.117 ± 0.052"},
      {"sequence": "ACCCCAAT", "PBM E-score of 8-mer": "-0.11 ± 0.012"},
      {"sequence": "AGTCAGTC", "PBM E-score of 8-mer": "-0.189 ± 0.16"},
      {"sequence": "GAGCTAAC", "PBM E-score of 8-mer": "0.07 ± 0.036"},
      {"sequence": "AATTCCGG", "PBM E-score of 8-mer": "-0.0633 ± 0.059"},
      {"sequence": "AGTTGACA", "PBM E-score of 8-mer": "0.407 ± 0.008"},
      {"sequence": "CCGGCGTC", "PBM E-score of 8-mer": "0.0458 ± 0.063"},
      {"sequence": "ACCGCATA", "PBM E-score of 8-mer": "-0.149 ± 0.053"},
      {"sequence": "CTCGCGTC", "PBM E-score of 8-mer": "0.16 ± 0.043"},
      {"sequence": "CAATATAC", "PBM E-score of 8-mer": "-0.0685 ± 0.036"},
      {"sequence": "ACACCGAT", "PBM E-score of 8-mer": "0.191 ± 0.0068"},
      {"sequence": "ACAGACAC", "PBM E-score of 8-mer": "0.245 ± 0.053"},
      {"sequence": "CCTACATC", "PBM E-score of 8-mer": "-0.272 ± 0.027"},
      {"sequence": "GCTCATCA", "PBM E-score of 8-mer": "-0.115 ± 0.012"},
      {"sequence": "CGTGCTTA", "PBM E-score of 8-mer": "-0.157 ± 0.03"},
      {"sequence": "ACTATTCT", "PBM E-score of 8-mer": "-0.0179 ± 0.007"},
      {"sequence": "GCCATCCC", "PBM E-score of 8-mer": "-0.237 ± 0.083"},
      {"sequence": "AGTGCTAC", "PBM E-score of 8-mer": "0.276 ± 0.031"},
      {"sequence": "CCAAGGAC", "PBM E-score of 8-mer": "-0.133 ± 0.021"},
      {"sequence": "CAAGCTGC", "PBM E-score of 8-mer": "0.0105 ± 0.018"},
      {"sequence": "CAATAACA", "PBM E-score of 8-mer": "0.00373 ± 0.058"},
      {"sequence": "AGAATTGC", "PBM E-score of 8-mer": "0.125 ± 0.041"},
      {"sequence": "TGAGCAAA", "PBM E-score of 8-mer": "0.0705 ± 0.069"},
      {"sequence": "AGAACGCA", "PBM E-score of 8-mer": "-0.107 ± 0.035"},
      {"sequence": "TCGATCAA", "PBM E-score of 8-mer": "-0.0163 ± 0.0032"},
      {"sequence": "TCTGTCAA", "PBM E-score of 8-mer": "0.152 ± 0.039"},
      {"sequence": "CTGTCTGA", "PBM E-score of 8-mer": "-0.0433 ± 0.0046"},
      {"sequence": "ATGTCCGC", "PBM E-score of 8-mer": "-0.174 ± 0.072"},
      {"sequence": "GACATCGC", "PBM E-score of 8-mer": "0.0476 ± 0.037"},
      {"sequence": "ATAAGGTG", "PBM E-score of 8-mer": "0.387 ± 0.0095"},
      {"sequence": "ATGGTCCA", "PBM E-score of 8-mer": "-0.275 ± 0.063"},
      {"sequence": "TCGGACAA", "PBM E-score of 8-mer": "-0.0104 ± 0.018"},
      {"sequence": "TTAGATAA", "PBM E-score of 8-mer": "-0.23 ± 0.014"},
      {"sequence": "CGTGCATA", "PBM E-score of 8-mer": "-0.211 ± 0.0082"}
    ]}
  ]
}
